Experimental data taken from PubChem BioAssay AID504333 (National Center for Advancing Translational Sciences (NCATS), 2011).
Out of some 360,000 compounds screened, about 16,000 (4.4%) were called active. This list was built around the results that the source calls inconclusive (neither active nor inactive); the mix of calls is not that of the screen. Calls come from the whole dose curve; as a rule, active = well fitted inhibition curve with a large enough effect; inconclusive = small, poorly fitted or top-dose-only effect; inactive = no such curve, though single readings can be large or run the other way. Potencies of inconclusive entries are doubtful fits and often do not repeat.
Note: nearly all actives have a fitted effect of over 60% in size.
Potency is the fitted concentration of half-maximal effect; tags give direction and shape of the fitted curve.

Each compound was assayed against Bromodomain adjacent to zinc finger domain protein 2B (Homo sapiens) (UniProt Q9UIF8) (assay: qHTS Assay for Inhibitors of BAZ2B). Details: AlphaScreen BAZ2B-H3K14Ac peptide displacement; series mostly up to 114 µM.
UniProt Q9UIF8, sequence (Q9UIF8 whole entry, looked up, the tested form may be a part): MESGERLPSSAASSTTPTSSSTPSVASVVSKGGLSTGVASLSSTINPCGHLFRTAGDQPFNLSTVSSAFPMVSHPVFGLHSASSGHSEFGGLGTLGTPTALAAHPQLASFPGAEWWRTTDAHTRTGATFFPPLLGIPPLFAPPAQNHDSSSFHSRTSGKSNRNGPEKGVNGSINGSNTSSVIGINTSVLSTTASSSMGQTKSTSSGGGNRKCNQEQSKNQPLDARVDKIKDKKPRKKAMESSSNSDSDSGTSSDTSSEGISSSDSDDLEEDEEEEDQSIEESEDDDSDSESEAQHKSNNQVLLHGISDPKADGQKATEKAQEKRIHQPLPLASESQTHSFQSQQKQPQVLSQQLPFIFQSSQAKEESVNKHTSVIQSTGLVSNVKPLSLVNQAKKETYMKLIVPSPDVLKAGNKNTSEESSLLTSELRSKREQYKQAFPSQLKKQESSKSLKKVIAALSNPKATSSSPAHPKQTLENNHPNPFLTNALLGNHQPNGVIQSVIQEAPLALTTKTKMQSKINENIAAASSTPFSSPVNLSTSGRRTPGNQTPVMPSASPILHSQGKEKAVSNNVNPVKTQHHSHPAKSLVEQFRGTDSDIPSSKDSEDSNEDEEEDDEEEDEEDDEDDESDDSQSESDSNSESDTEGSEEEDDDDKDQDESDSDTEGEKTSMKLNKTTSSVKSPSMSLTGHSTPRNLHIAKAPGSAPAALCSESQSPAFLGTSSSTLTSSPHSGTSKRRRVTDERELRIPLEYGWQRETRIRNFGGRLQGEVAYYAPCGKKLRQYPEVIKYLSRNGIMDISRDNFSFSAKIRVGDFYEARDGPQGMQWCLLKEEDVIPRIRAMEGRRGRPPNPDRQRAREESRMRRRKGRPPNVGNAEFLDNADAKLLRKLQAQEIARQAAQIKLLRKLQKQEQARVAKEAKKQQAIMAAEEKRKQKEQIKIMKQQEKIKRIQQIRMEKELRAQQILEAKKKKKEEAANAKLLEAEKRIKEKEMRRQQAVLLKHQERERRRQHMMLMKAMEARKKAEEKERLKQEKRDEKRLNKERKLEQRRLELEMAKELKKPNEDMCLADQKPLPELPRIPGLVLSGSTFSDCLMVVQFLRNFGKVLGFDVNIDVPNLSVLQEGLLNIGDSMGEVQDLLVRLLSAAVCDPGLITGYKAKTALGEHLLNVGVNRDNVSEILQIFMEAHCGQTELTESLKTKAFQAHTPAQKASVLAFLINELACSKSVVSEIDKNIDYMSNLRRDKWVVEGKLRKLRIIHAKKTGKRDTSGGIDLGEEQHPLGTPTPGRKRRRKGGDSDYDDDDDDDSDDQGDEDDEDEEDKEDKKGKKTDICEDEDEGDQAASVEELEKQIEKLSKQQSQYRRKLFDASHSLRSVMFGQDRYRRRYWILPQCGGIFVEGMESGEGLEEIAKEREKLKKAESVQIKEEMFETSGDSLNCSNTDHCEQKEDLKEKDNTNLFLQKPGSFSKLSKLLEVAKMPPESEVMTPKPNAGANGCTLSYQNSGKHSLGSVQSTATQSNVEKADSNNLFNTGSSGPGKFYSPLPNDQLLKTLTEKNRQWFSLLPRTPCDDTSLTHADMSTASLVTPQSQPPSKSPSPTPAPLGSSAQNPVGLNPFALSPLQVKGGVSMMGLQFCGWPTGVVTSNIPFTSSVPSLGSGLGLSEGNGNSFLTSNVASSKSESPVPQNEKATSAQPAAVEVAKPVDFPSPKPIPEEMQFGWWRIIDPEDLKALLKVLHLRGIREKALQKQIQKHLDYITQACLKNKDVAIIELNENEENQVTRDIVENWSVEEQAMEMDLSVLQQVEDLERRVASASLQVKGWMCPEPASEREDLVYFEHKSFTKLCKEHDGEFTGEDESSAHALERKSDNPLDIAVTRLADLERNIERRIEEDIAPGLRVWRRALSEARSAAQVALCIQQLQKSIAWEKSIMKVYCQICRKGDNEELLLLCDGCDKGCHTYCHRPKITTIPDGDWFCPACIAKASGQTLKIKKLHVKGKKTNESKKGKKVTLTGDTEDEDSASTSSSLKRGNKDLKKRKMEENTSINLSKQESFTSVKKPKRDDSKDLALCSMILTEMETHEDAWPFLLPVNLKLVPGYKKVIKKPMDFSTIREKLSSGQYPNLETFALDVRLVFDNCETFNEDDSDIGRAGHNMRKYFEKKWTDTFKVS
Summary of the method: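 AlphaScreen displacement of biotin-H3(5-23)K14Ac peptide (50 nM final) from BAZ2B (50 nM final) in PBS pH 7.4, 0.01% Tween-20; complex preformed 30 min RT, then compounds (top 110 uM) 30 min RT, beads 20 min dark.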
In the case of `C=CCn1c(SCC(=O)NC2CCCC2)nc2scc(-c3ccco3)c2c1=O`, the Potency was inconclusive: 100 µM [inhibitor, single point]. With `CC[C@H](C)[C@@H]1NC(=O)c2cc([N+](=O)[O-])cc(I)c2NCC[C@@H](C(N)=O)NC(=O)[C@H](CCCN=C(N)N)NC1=O` the Potency was inconclusive: 89.1 µM [inhibitor, single point]. `COc1cc(-c2ccccc2)[nH]c(=S)n1` was tested, and the Potency was inconclusive: 31.6 µM [inhibitor, full curve, poor fit]. For `COc1ccc(CN2C(=O)C(=O)N(CC(N)=O)C2=O)cc1`, the Potency was inconclusive: 70.8 µM [inhibitor, partial curve, poor fit]. With `Cc1ccc2cc(/C=N/Nc3ccc(C(=O)O)cc3)c(Cl)nc2c1` the Potency was inconclusive: 79.4 µM [inhibitor, single point]. With `Nn1c(SCc2ccccc2)nnc1-c1ccccn1` the Potency was active: 14.1 µM. `O=C(O)CCC(C(=O)O)n1c(O)c(C2=c3ccccc3=NC2=O)sc1=S` (configuration not stated) was tested, and the Potency was inconclusive: 89.1 µM [inhibitor, single point]. For `Cc1cc(NC(=O)C(=O)NCc2cccc(Cl)c2)no1`, the Potency was “inactive”. In the case of `CCCOc1cccc(C(=O)NC(=S)Nc2ccccc2)c1`, the Potency was inconclusive: 39.8 µM [inhibitor, partial curve]. In the case of `COc1ccccc1Nc1c2c(nc3ccc(NC(=O)/C=C/c4cc(OC)c(OC)c(OC)c4)cc13)CCCC2`, the Potency was active: 11.2 µM. With `Cc1nc2sccn2c1-c1csc(NCc2ccccc2)n1` the Potency was inconclusive: 70.8 µM [inhibitor, single point]. `O=C(NCC1CCCO1)c1cc2cc(F)ccc2[nH]1` (configuration not stated) was tested, and the Potency was “inactive”. In the case of `CCOc1cc(N2CCOCC2)c(OCC)cc1NS(=O)(=O)c1ccc(Cl)s1`, the Potency was active: 50.1 µM. `O=c1c(Sc2ccccc2)c(C(F)(F)F)[nH]n1-c1ccccc1` was tested, and the Potency was inconclusive: 5.62 µM [inhibitor, full curve]. With `COc1ccc(OCc2ccc(-c3nc(C#N)c(N4CCC(C(N)=O)CC4)o3)o2)cc1` the Potency was inconclusive: 12.6 µM [inhibitor, full curve, poor fit]. For `Cc1ccc(C(C2C(=O)CC(C)(C)CC2=O)C2C(=O)CC(C)(C)CC2=O)s1`, the Potency was inconclusive: 100 µM [inhibitor, single point]. For `CCOC(=O)N1CCC(N2Cc3cccc(C(=O)N4CCN(c5cccc(Cl)c5)CC4)c3C2=O)CC1`, the Potency was inconclusive: 89.1 µM [inhibitor, single point]. With `O=C(N/N=C/c1ccccn1)c1cc(-c2ccccc2Cl)n[nH]1` the Potency was active: 56.2 µM. With `COc1ccc(NCc2nnc(SCc3ccccc3)n2-c2ccc(OC)cc2)cc1` the Potency was active: 50.1 µM. For `O=C1c2ccc([N+](=O)[O-])cc2NC(c2ccco2)N1/N=C/c1ccco1` (configuration not stated), the Potency was inconclusive: 50.1 µM [inhibitor, partial curve]. `O=C1CC(=O)N(Cc2ccco2)C(=O)N1` was tested, and the Potency was active: 39.8 µM. `C=CCn1c(COc2ccc(Cl)cc2)nnc1SCC(=O)c1c(N)n(C)c(=O)n(C)c1=O` was tested, and the Potency was inconclusive: 44.7 µM [inhibitor, partial curve, poor fit]. In the case of `COc1ccc(NC(=O)NC23CC4CC(CC(C4)C2)C3)cc1OC`, the Potency was inconclusive: 50.1 µM [inhibitor, partial curve]. For `CCOC(=O)C(=O)Nc1ccc([N+](=O)[O-])cc1OC`, the Potency was inconclusive: 3.55 µM [inhibitor, single point]. In the case of `O=C(COC(=O)c1ccc(O)cc1)Nc1ccc(N2CCCCC2)cc1`, the Potency was inconclusive: 44.7 µM [inhibitor, partial curve]. `Cc1ccc(/C=N/NC(=O)CSc2nnc(-c3ccccc3)n2-c2ccc(Cl)cc2)o1` was tested, and the Potency was inconclusive: 79.4 µM [inhibitor, single point]. In the case of `Cc1c(NC(=O)C(C)OC(=O)COc2ccc(C#N)cc2)c(=O)n(-c2ccccc2)n1C` (configuration not stated), the Potency was “inactive”. With `COc1ccccc1C(=O)Nc1cc(C)ccc1NC(=O)c1ccco1` the Potency was “inactive”. In the case of `c1ccc(N/N=C2\CCCc3ccccc32)nc1`, the Potency was inconclusive: 50.1 µM [inhibitor, partial curve]. `COc1ccc(CNc2n[nH]c(-c3ccco3)n2)cc1OC` was tested, and the Potency was inconclusive: 89.1 µM [inhibitor, single point]. For `COc1ccc(-c2cc(C3CCN(c4ccc(C(C)=O)cc4[N+](=O)[O-])CC3)[nH]n2)cc1`, the Potency was inconclusive: 35.5 µM [inhibitor, full curve]. With `O=C(c1cc(-c2ccccc2Cl)nc2ccccc12)N1CCN(c2ccccc2O)CC1` the Potency was “inactive”. `CNC(=S)N/N=C(\C)c1ccc(C)c(C)c1` was tested, and the Potency was inconclusive: 50.1 µM [inhibitor, partial curve]. `O=S(=O)(Nc1cccc(-c2ccc(N3CCOCC3)nn2)c1)c1cc(Cl)ccc1Cl` was tested, and the Potency was “inactive”. For `CC(C)(C)c1ccc(NC(=O)COC(=O)c2ccc(NS(=O)(=O)c3ccc(F)c(F)c3)cc2)cc1`, the Potency was “inactive”. With `COc1ccc2c(c1)cc(C(O)c1ccccn1)n2S(=O)(=O)c1ccccc1` (configuration not stated) the Potency was inconclusive: 79.4 µM [inhibitor, single point]. With `O=C(Nc1nnc(SCC(=O)N2CCCCC2)s1)c1ccc(F)cc1F` the Potency was inconclusive: 89.1 µM [inhibitor, single point]. `CCOc1ccc(/C=C/C(=O)c2cc(Br)ccc(=O)c2O)cc1` was tested, and the Potency was active: 44.7 µM. In the case of `COc1cc(NC(=O)CSc2nnc3c(n2)[nH]c2ccc(S(=O)(=O)NC(C)C)cc23)cc(OC)c1OC`, the Potency was inconclusive: 79.4 µM [inhibitor, single point]. In the case of `COC(=O)c1ccccc1NC(=O)Cn1nc2n(C)c3ccccc3n2c(=O)c1=O`, the Potency was inconclusive: 89.1 µM [inhibitor, single point]. In the case of `O=C(Cn1cc(S(=O)(=O)c2ccc(Cl)cc2)c(=O)c2ccccc21)Nc1ccc2c(c1)OCO2`, the Potency was inconclusive: 89.1 µM [inhibitor, single point]. `COc1ccc2oc(C(=O)C3CC3)c(N)c2c1` was tested, and the Potency was inconclusive: 70.8 µM [inhibitor, single point]. For `COCCNC(=O)COc1ccc(Nc2ccccc2)cc1`, the Potency was inconclusive: 89.1 µM [inhibitor, single point]. For `Cc1cc(C)nc(SCc2cc(=O)c(OC(=O)c3cccc([N+](=O)[O-])c3)co2)n1`, the Potency was inconclusive: 56.2 µM [inhibitor, partial curve]. For `COc1ccc(C2=NC3(CCCCCC3)N(CC(=O)Nc3cccc(Cl)c3)C2=O)cc1`, the Potency was “inactive”. With `Cc1nc2c(C)cccc2cc1C(=O)N/N=C/c1ccc(N(C)C)cc1` the Potency was inconclusive: 44.7 µM [inhibitor, partial curve]. `COc1ccc(NC(=O)CSc2nc3ccccc3c(=O)n2CCCN2CCC(C)CC2)c(OC)c1` was tested, and the Potency was inconclusive: 25.1 µM [inhibitor, full curve]. For `Cc1cccc(NC(=O)c2n[nH]c([N+](=O)[O-])c2Br)c1C`, the Potency was “inactive”. With `CCCCCC(=O)Nc1nc(C)c(-c2csc(Nc3cc(Cl)ccc3C)n2)s1` the Potency was inconclusive: 44.7 µM [inhibitor, partial curve]. For `O=C1COc2ccc(S(=O)(=O)CCC(=O)N3CCN(c4cccc(Cl)c4)CC3)cc2N1`, the Potency was inconclusive: 79.4 µM [inhibitor, single point]. In the case of `O=C(NCCOc1ccccc1)c1cc2ccccc2o1`, the Potency was “inactive”. For `COC(=O)[C@@]12CCCN1[C@H](c1ccc(-c3ccc(F)cc3)cc1)[C@H]1C(=O)N(C)C(=O)[C@H]12`, the Potency was active: 70.8 µM. `COc1ccc(CN2CCN(S(=O)(=O)c3ccc(F)cc3)CC2)c(OC)c1OC` was tested, and the Potency was inconclusive: 70.8 µM [inhibitor, single point]. `O=C(N/N=C\c1ccc2c(c1)OCO2)c1ccc(Cn2cc(Br)c([N+](=O)[O-])n2)o1` was tested, and the Potency was inconclusive: 56.2 µM [inhibitor, partial curve]. In the case of `COc1ccccc1-c1nc2ccccc2c(=O)n1O`, the Potency was inconclusive: 79.4 µM [inhibitor, single point]. In the case of `CNc1nc(C)c(C(C)=O)cc1C#N`, the Potency was inconclusive: 89.1 µM [inhibitor, single point]. For `CCc1ccc(S(=O)(=O)/N=C2/C=C(Sc3ncn[nH]3)C(=O)c3ccccc32)cc1`, the Potency was active: 44.7 µM. With `COc1ccccc1N1CCN(S(=O)(=O)c2ccc3c(c2)NC(=O)CS3)CC1` the Potency was inconclusive: 56.2 µM [inhibitor, partial curve]. For `Cn1c2c(c(=O)n(C)c1=O)C(c1ccccc1[N+](=O)[O-])CC(=O)N2` (configuration not stated), the Potency was “inactive”. For `CCCCCCC(=O)Nc1nc(C)c(-c2csc(Nc3ccccc3OC)n2)s1`, the Potency was inconclusive: 79.4 µM [inhibitor, single point]. `CCOc1ccc(-c2nnc(NC(=O)Cc3cc(OC)c(OC)c(OC)c3)o2)cc1` was tested, and the Potency was active: 22.4 µM. For `O=C(CNc1ccc(Br)cc1)c1ccc(Br)s1`, the Potency was inconclusive: 70.8 µM [inhibitor, single point]. In the case of `Nc1ccc(C(=O)n2c3ccccc3c3ccccc32)cc1`, the Potency was “inactive”. In the case of `CCOC(=O)C1CCN(C(=O)c2ccc(Oc3cc(Cl)cc(Cl)c3)o2)CC1`, the Potency was inconclusive: 50.1 µM [inhibitor, partial curve]. For `CCCc1cc(=O)[nH]c(SCC(=O)c2cc(C)n(C3CC3)c2C)n1`, the Potency was inconclusive: 89.1 µM [inhibitor, single point]. For `O=C(O)CC1CCC(=C(Cl)Cl)C1` (configuration not stated), the Potency was inconclusive: 89.1 µM [inhibitor, single point]. `COc1ccc(S(=O)(=O)Nc2cc3c(C(C)=O)c(C)oc3c3ccccc23)cc1` was tested, and the Potency was inconclusive: 89.1 µM [inhibitor, single point].
